Measurements reported in PubChem BioAssay AID1347043 (National Center for Advancing Translational Sciences (NCATS), 2019).
Hit rate of the full screen: of about 76,000 compounds, about 1,900 (2.5%) were called active. The inconclusive results got no clear call from the source; some entries with a clear call stand among them for comparison. Calls follow the shape of the dose curve; as a rule, active = well fitted inhibition curve with a large enough effect; inconclusive = small, poorly fitted or top-dose-only effect; inactive = flat fitted curve, though single readings scatter. Potencies beside an inconclusive call are fits to weak or partial responses and may not hold up.

biological target: Luciferin 4-monooxygenase (Photinus pyralis) (UniProt P08659); test: Firefly luciferase inhibition profiling of diverse chemical library using quantitative high-throughput screening; also: nearly all actives have a fitted effect of over 65% in size; conditions: purified P. pyralis luciferase, luminescence, biochemical; series mostly up to 115 µM
In short: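 Luminescence read by CCD imaging after purified firefly luciferase (10nM final) was added to substrate buffer holding 10uM D-luciferin and 10uM ATP, pH 7.5, pre-dosed with compound.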
Potency is read from the fitted curve at half-maximal effect; tags tell the direction and shape of the fitted curve.

Chain of UniProt P08659 (P08659 whole entry, looked up): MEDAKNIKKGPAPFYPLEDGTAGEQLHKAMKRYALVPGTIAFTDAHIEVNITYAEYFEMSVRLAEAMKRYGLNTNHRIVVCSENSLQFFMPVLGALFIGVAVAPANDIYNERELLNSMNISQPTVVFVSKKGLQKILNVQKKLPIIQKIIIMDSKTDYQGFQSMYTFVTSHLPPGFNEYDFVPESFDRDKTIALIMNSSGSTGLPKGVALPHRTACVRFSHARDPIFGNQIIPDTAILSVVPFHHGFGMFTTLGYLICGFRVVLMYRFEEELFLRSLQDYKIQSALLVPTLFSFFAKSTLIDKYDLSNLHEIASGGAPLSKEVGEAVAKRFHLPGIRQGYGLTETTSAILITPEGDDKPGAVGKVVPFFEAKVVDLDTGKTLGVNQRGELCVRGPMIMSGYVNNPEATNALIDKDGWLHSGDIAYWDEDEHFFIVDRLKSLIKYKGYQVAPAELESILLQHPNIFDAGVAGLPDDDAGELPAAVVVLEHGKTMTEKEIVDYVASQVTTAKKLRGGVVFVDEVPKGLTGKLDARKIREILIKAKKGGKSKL

SMILES	Potency
COc1ccc(NC(=O)c2ccc3c(c2)N(C(=O)c2ccc(OC)cc2)CC3)cc1	inconclusive: 12.6 µM [inhibitor, full curve]
Cc1cc(C(=O)N2c3ccccc3CC2c2nnc(C(C)C)o2)nn1C (centres undefined)	inconclusive: 50.1 µM [inhibitor, partial curve, poor fit]
N#Cc1ccccc1CN1CCC([C@@H]2CNC[C@H]2CO)CC1	inactive
COc1ccc(OC)c(CNC(=O)C2CCc3sc(C(=O)N4CCCC4)cc3C2)c1 (centres undefined)	inactive
Cc1ccc(NC(=O)N2CCC(CCNC(=O)CC3CCCC3)CC2)cc1	inconclusive: 79.4 µM [inhibitor, partial curve]
Fc1ccc(NC(=S)N[C@H]2CO[C@H]3[C@@H]2OC[C@@H]3n2nnnc2Oc2ccc3c(c2)OCO3)cc1	inactive
C[C@@H]1CN(C(=O)CCCc2cccs2)C[C@@]1(O)C1CCC1	inconclusive: 44.7 µM [inhibitor, partial curve]
Cc1ccc(NC(=O)Cn2c(C)cc3nc4n(c(=O)c32)CCCC4)cc1	inactive
O=C(NCCC1=CCCCC1)c1cc2c(s1)CN(C1CCCC1)C2	inconclusive: 31.6 µM [inhibitor, partial curve]
Fc1ccc(CN2CC[C@H](c3nc4ccccc4o3)C2)cc1F	inconclusive: 100 µM [inhibitor, partial curve, poor fit]
CNC(=O)c1cccc(-c2cnc(Nc3cccc(C(F)(F)F)c3)c3c2CCO3)c1	inconclusive: 44.7 µM [inhibitor, full curve]
O=C(CCc1c[nH]c2ccccc12)N1CCCC2(CCOC2)C1 (centres undefined)	inconclusive: 44.7 µM [inhibitor, partial curve]
CS(=O)(=O)N1CCCC1c1noc(CCC(=O)N2CC=C(c3ccccc3)CC2)n1 (centres undefined)	inconclusive: 100 µM [inhibitor, single point]
O=C(c1ccc(C(F)(F)F)cc1)N1CCc2nc(-c3ccc(Cl)cc3)nc(-c3ccccc3)c2C1	inactive
CCN(CC)c1cc(CCC(=O)N(C)Cc2ccccc2)ccn1	inactive
COc1cccc(NC(=O)N2CCN3C(=O)N(C)C[C@H]3C2)c1	inconclusive: 79.4 µM [inhibitor, partial curve]
COc1ccc2cc(C3CN(c4ncnc(C)c4C)CCO3)ccc2c1 (centres undefined)	inconclusive: 44.7 µM [inhibitor, partial curve]
CN1C(=O)COC[C@@H]1[C@H](O)c1ccc(NC(=O)Nc2ccccc2)cc1	inconclusive: 70.8 µM [inhibitor, partial curve]
COc1ccc(Nc2cnc3ccc(-c4ccc(OC)c(OC)c4)nn23)cc1OC	inconclusive: 63.1 µM [inhibitor, partial curve, poor fit]
Cc1ccc2[nH]c(=O)c(CCC(=O)N3CCN(CC(C)C)CC3)cc2c1	inactive
Cc1ccc(NC(=O)N2CCc3c(c4cc(F)ccc4n3C)C2)cc1	inconclusive: 35.5 µM [inhibitor, partial curve]
Cc1ccc(C2Cn3cnc(C(=O)N4CCC(C(=O)NCc5cc(F)ccc5F)CC4)c3CO2)cc1 (centres undefined)	active: 39.8 µM
O=C(Nc1cccc(C(F)(F)F)c1)N[C@H]1CO[C@H]2[C@@H]1OC[C@@H]2n1cc(-c2ccccn2)nn1	inconclusive: 56.2 µM [inhibitor, partial curve]

SMILES	Potency
COc1ccc(-c2cc(N3CCCC(NC(=O)c4ccccc4F)C3)n[nH]2)cc1 (centres undefined)	inconclusive: 35.5 µM [inhibitor, partial curve]
COCCn1ncc(N2CCCC(CC(=O)Nc3cccc(Cl)c3)C2)cc1=O (centres undefined)	inactive
Cc1ccc(CNC(=O)c2noc(-c3ccc4c(c3)OCO4)n2)cc1	inconclusive: 31.6 µM [inhibitor, full curve]
COc1cccc(CN2C[C@@H](CO)[C@H](NC(=O)C3CC3)C2)n1	inactive
COc1ccccc1CNC(=O)C1CCN(C(=O)c2ncn3c2COC(c2ccc(C)cc2)C3)CC1 (centres undefined)	inconclusive: 44.7 µM [inhibitor, partial curve]
O=c1n(-c2ccc(F)cc2F)nc2n1CCN(Cc1ccccc1)C2	inconclusive: 50.1 µM [inhibitor, partial curve]
Cc1nc(C)c(C(=O)N2CCCCCCNC(=O)[C@@H]3CCCC[C@@H]32)s1	inactive
Cc1cnc(CC2CCCN(C(=O)c3ccn[nH]3)C2)n1Cc1ccccc1 (centres undefined)	inconclusive: 44.7 µM [inhibitor, partial curve]
COc1ccc(-c2cc(N3CCCC(NC(=O)c4cccc(OC)c4OC)C3)n[nH]2)cc1 (centres undefined)	inconclusive: 44.7 µM [inhibitor, partial curve]
COCC1CCN(Cc2cc3cc4c(cc3nc2-c2ccc(Cl)cc2)OCO4)C1 (centres undefined)	inconclusive: 44.7 µM [inhibitor, full curve, poor fit]
COCCNC(=O)C(C)[C@@H]1CC[C@@]2(C)CC[C@H](NC(=O)c3cccc(F)c3)[C@@H](C)[C@@H]2[C@H]1O (some centres undefined)	inactive
Cc1c(-c2ccccc2F)[nH]c2ccc(CNC(=O)CC3CCC(=O)N3)cc12 (centres undefined)	active: 10 µM
O=C(NCc1ccnc2[nH]ccc12)c1ccccc1	inconclusive: 50.1 µM [inhibitor, partial curve]
COc1ccc(C(=O)N(C)C2CCOc3ccccc32)cc1 (centres undefined)	inconclusive: 89.1 µM [inhibitor, partial curve, poor fit]
c1ccc(CCn2cnc3cccnc32)cc1	active: 39.8 µM
CC1(COCC2CC2)COc2ccc(C(=O)Nc3ccccc3)cc2N1 (centres undefined)	active: 22.4 µM
O=C(Nc1ccccc1)N[C@H]1CO[C@H]2[C@@H]1OC[C@@H]2Nc1nccc(-c2cccs2)n1	inconclusive: 70.8 µM [inhibitor, partial curve]
Cc1ccc(C(=O)N2CCC(Cc3nc(-c4ccccc4)no3)CC2)c(C)c1	inactive
CCc1ccc(CNC(=O)CCC2CCCN(S(=O)(=O)c3ccccc3C)C2)cc1 (centres undefined)	inactive
Cn1cc(-c2cnc(Nc3ccc(F)c(Cl)c3)c3c2CCO3)cn1	inactive
O=C1CCCN1CCCN1C(=O)[C@H]2CNC[C@H]2C1=O	inactive
CN1CCC(N2CCN(C(=O)C3CCCN(S(C)(=O)=O)CCC(=O)NCC3)CC2)CC1 (centres undefined)	inactive
Fc1ccccc1-c1noc(NCCc2ccc(Cl)cc2)n1	inconclusive: 44.7 µM [inhibitor, partial curve]

SMILES	Potency
Fc1ccc(-c2ccc3ncc(Nc4ccc5c(c4)OCCO5)n3n2)cc1	inconclusive: 112 µM [inhibitor, single point]
COc1ccc(-c2cc3nc4c(c(=O)n3[nH]2)CN(C(=O)c2ccc(C)nc2)CC4)cc1	inconclusive: 39.8 µM [inhibitor, partial curve]
CCO[C@H]1CN(C(=O)CCCOc2ccccc2)C[C@@H]1O	inconclusive: 50.1 µM [inhibitor, partial curve, poor fit]
COCc1noc(CC2CN(C(=O)c3cn(-c4ccccc4)nn3)CCO2)n1 (centres undefined)	inconclusive: 79.4 µM [inhibitor, partial curve, poor fit]
N#Cc1cccc(-c2ccnc(N[C@H]3CO[C@H]4[C@@H]3OC[C@H]4OC(=O)Nc3ccccc3)n2)c1	inconclusive: 44.7 µM [inhibitor, partial curve]
CCCN(C)c1nccnc1OC1CCN(C(=O)C2CCOCC2)C1 (centres undefined)	active: 39.8 µM
CN(C)C[C@@H]1CN(C)C[C@H]1NC(=O)c1cc2ccccc2[nH]1	active: 39.8 µM
CCc1ccccc1NC(=O)Nc1cccc(-c2ccc(N3CCOCC3)nn2)c1	active: 1 µM
COCCC(=O)N1CCC(Oc2nccnc2N2CCc3ccccc32)C1 (centres undefined)	inconclusive: 39.8 µM [inhibitor, partial curve]
COc1ccc2nc([C@H]3CCN(C(C)C)C3)[nH]c2c1	active: 22.4 µM
O=C(Cc1ccc(N(Cc2ccccc2)C(=O)c2ccco2)cc1)Nc1ccccc1	inconclusive: 50.1 µM [inhibitor, partial curve, poor fit]
c1ccc(CNc2cc(-c3cc(N4CCCCC4)ncn3)c3cc[nH]c3n2)nc1	active: 7.94 µM
CN(C)CCOc1cccc2c1c(NC(=O)c1ccn[nH]1)nn2-c1ccc(F)cc1	inconclusive: 44.7 µM [inhibitor, partial curve]
CC1Cc2cc(C(=O)N3CCC4(CCC(=O)N(C)C4)CC3)ccc2O1 (centres undefined)	inactive
Cc1cc(C)cc(NC(=O)N2CCCC(c3noc(COc4ccccc4)n3)C2)c1 (centres undefined)	inconclusive: 17.8 µM [inhibitor, partial curve, poor fit]
Cc1nn(C(=O)CCC(=O)N2CCC(CCOc3ccccc3F)C2)c2ccccc12 (centres undefined)	inactive
CCn1ncc(N2CCCC(CC(=O)Nc3ccc(C)c(F)c3)C2)cc1=O (centres undefined)	inconclusive: 44.7 µM [inhibitor, partial curve]
CCC(C)NC(=O)C1CCN(C(=O)c2nnn3c2COC(c2ccc(C)cc2)C3)CC1 (centres undefined)	inconclusive: 39.8 µM [inhibitor, partial curve]
COc1ccc(CN2Cc3[nH]cnc3C[C@H]2c2nc(-c3ccc(C(F)(F)F)cc3)no2)cc1	active: 39.8 µM
OC1(CN2CCCN(c3nc4ccccc4s3)CC2)CNCCOC1 (centres undefined)	active: 12.6 µM
CCc1cc(=O)n(CC(=O)Nc2ccc(OC)cc2)c(-c2cccc(F)c2)n1	inactive
O=C1CCN(C(=O)C2CCN(S(=O)(=O)c3ccc4c(c3)CCC4)CC2)CCCCCCN1	inactive
c1ccc(-n2cc(CN3CCCC3c3nc4ccccc4s3)nn2)cc1 (centres undefined)	inconclusive: 79.4 µM [inhibitor, partial curve]
